According to the RNAGym collection of RNA variant scans (doi:10.7554/elife.90254):
The source gives no read counts; variants with many changes may rest on few reads.

B1: LINE1-mini (parent)
chain: GGCAGAGCUCAACACAGCGUGGCAAAGUGGCUGUGGCUAGACUGCC

Variants of: B1
Assay: self-cleavage, relative activity (ratio to wild type); higher = more cleavage; in vitro, sequencing; the parent is a self-cleaving ribozyme

Q: With AGCAGAGCUCAACACAGCGUGCCAAAGUGGGUGUGGCUAGACUGCC [G1A G22C C31G] as the variant, how does the self-cleavage read?
A: The self-cleavage was 0.04.

Q: For AGCAGAGCUCAACACAGCGUGCCAAAGUGGCUCAGGGUAGUCUGCC [G1A G22C G33C U34A C37G A41U], which self-cleavage is on record?
A: Its self-cleavage is 0.02.

Q: Which self-cleavage does the source give for AGCAGAGCUCAACACAGCGUGCCAAAGUGGCUGUGCCUAGACUGCC [G1A G22C G36C] here?
A: Its self-cleavage is 0.1.

Q: Which self-cleavage does the source give for AGCAGAGCUCAACACAGCGUGCCAAAGUGGCUGUGGCUAUAAUACC [G1A G22C G40U C42A G44A] here?
A: The self-cleavage was 0.02.

Q: With AGCAGAGCUCAACACAGCGUGGCAAAAUGGCUGUGGCUUGACUGCC [G1A G27A A39U] as the variant, how does the self-cleavage read?
A: Its self-cleavage is 1.74.

Q: For AGCAGAGCUCAACACAGCGUGGCAAAAUGGCUGUGGAUCUACUGUC [G1A G27A C37A A39C G40U C45U], which self-cleavage is on record?
A: Its self-cleavage is 0.03.

Q: With AGCAGAGCUCAACACAGCGUGGCAAACUGGCUGUGGCUAGAUUGCC [G1A G27C C42U] as the variant, how does the self-cleavage read?
A: The self-cleavage was 0.05.

Q: For AGCAGAGCUCAACACAGCGUGGCAAACUGUGUGUGGCUAGACUGCC [G1A G27C G30U C31G], which self-cleavage is on record?
A: Its self-cleavage is 0.05.

Q: With AGCAGAGCUCAACACAGCGUGGCAAAGUAGCUGUGGCUAGAAUGCC [G1A G29A C42A] as the variant, how does the self-cleavage read?
A: Its self-cleavage is 0.13.

Q: With AGCAGAGCUCAACACAGCGUGGCAAAGUAGCGGUUGCGAGACAGCA [G1A G29A U32G G35U U38G U43A C46A] as the variant, how does the self-cleavage read?
A: The self-cleavage was 0.01.

Q: With AGCAGAGCUCAACACAGCGUGGCAAAGUCGCUGUGGCUAGACUGUA [G1A G29C C45U C46A] as the variant, how does the self-cleavage read?
A: The self-cleavage was 2.98.

Q: With AGCAGAGCUCAACACAGCGUGGCAAAGUUGUUGUGGCUAGACUGCC [G1A G29U C31U] as the variant, how does the self-cleavage read?
A: The self-cleavage was 0.28.

Q: Which self-cleavage does the source give for AGCAGAGCUCAACACAGCGUGGCAAAGUGACUGUGGCUAGACGGCC [G1A G30A U43G] here?
A: Its self-cleavage is 0.

Q: With AGCAGAGCUCAACACAGCGUGGCAAAGUGCCUGUGGCUAGAUUCCG [G1A G30C C42U G44C C46G] as the variant, how does the self-cleavage read?
A: The self-cleavage was 0.02.

Q: With AGCAGAGCUCAACACAGCGUGGCAAAGUGUCUGUGGCUAGACUGCA [G1A G30U C46A] as the variant, how does the self-cleavage read?
A: Its self-cleavage is 1.64.

Q: With AGCAGAGCUCAACACAGCGUGGCAAAGUGUCCGUCGCUAGAAUGCC [G1A G30U U32C G35C C42A] as the variant, how does the self-cleavage read?
A: The self-cleavage was 0.04.

Q: For AGCAGAGCUCAACACAGCGUGGCAAAGUGGCUGUUCCUAGACUGCC [G1A G35U G36C], which self-cleavage is on record?
A: Its self-cleavage is 0.12.

Q: Which self-cleavage does the source give for AGCAGAGCUCAACACAGCGUGGCAAAGUGGCUGUGACUAUACUGCC [G1A G36A G40U] here?
A: Its self-cleavage is 0.14.

Q: For AGCAGAGCUCAACACAGCGUGGCAAAGUGGCUGUGGCUACACUGAC [G1A G40C C45A], which self-cleavage is on record?
A: The self-cleavage was 0.02.

Q: For AGCAGAGCUCAACACAGCGUGGCAAAGUGGCUGUGGCUAUCCUGCA [G1A G40U A41C C46A], which self-cleavage is on record?
A: The self-cleavage was 0.05.

Q: With AGCAGAGCACAACACUGCAUGGCAAAGUGGUUGUGGCUAGACUGCC [G1A U9A A16U G19A C31U] as the variant, how does the self-cleavage read?
A: The self-cleavage was 0.03.

Q: For AGCAGAGCACAACACAGCGUGGCAAAGUGGCUGUGGCUUGACUGCC [G1A U9A A39U], which self-cleavage is on record?
A: Its self-cleavage is 0.16.

Q: With AGCAGAGCACAACACAGCGUGGCAAAGUGGCUGUGGCUAGCCUGCC [G1A U9A A41C] as the variant, how does the self-cleavage read?
A: The self-cleavage was 0.12.

Q: For AGCAGAGCACAACACAGCGUGGCAAAGUGGCUGUGGCUAGAAUGCC [G1A U9A C42A], which self-cleavage is on record?
A: The self-cleavage was 0.45.

Q: For AGCAGAGCACAACACAGCGUGGCAAAGUGGCUGUGUCUAGACAGCC [G1A U9A G36U U43A], which self-cleavage is on record?
A: Its self-cleavage is 0.04.

Q: With AGCAGAGCCCAACACAGCGUGGCAAAGUGGCUGUGGCUGGACUGCC [G1A U9C A39G] as the variant, how does the self-cleavage read?
A: Its self-cleavage is 0.04.

Q: Which self-cleavage does the source give for AGCAGAGCCCAACACAGCGUGGCAAAGUGGCUGUGGCUAGCCUGCC [G1A U9C A41C] here?
A: The self-cleavage was 0.22.

Q: Which self-cleavage does the source give for AGCAGAGCCCAACACAGUGCGGCAAAGUGGCUGUGGCUAAACUGCC [G1A U9C C18U U20C G40A] here?
A: Its self-cleavage is 0.04.

Q: With AGCAGAGCCCAACACAGCGUGGCAAAGUGGCUGUGGCUAGACUUCC [G1A U9C G44U] as the variant, how does the self-cleavage read?
A: The self-cleavage was 0.03.

Q: For AGCAGAGCGCGACACAGCGUGACAAAGUGGCUGUGGCUAGACUGCC [G1A U9G A11G G22A], which self-cleavage is on record?
A: The self-cleavage was 0.09.

Q: Which self-cleavage does the source give for AGCAGAGCGCAACACAGCGUGGCCGAAUGGCUGUGGCUAGACUGCC [G1A U9G A24C A25G G27A] here?
A: Its self-cleavage is 0.12.

Q: Which self-cleavage does the source give for AGCAGAGCGCAACACAGCGUGGCGAAGUGGCUGUGGCAAGACUGCC [G1A U9G A24G U38A] here?
A: Its self-cleavage is 0.51.

Q: With AGCAGAGCGCAACACAGCGUGGCACAGUGGCUGUGGAUAGACUGCC [G1A U9G A25C C37A] as the variant, how does the self-cleavage read?
A: Its self-cleavage is 0.18.

Q: For AGCAGAGCGCAACACAGCGUCGCAAAUUGGCUGUGGCUAUACUGCC [G1A U9G G21C G27U G40U], which self-cleavage is on record?
A: Its self-cleavage is 0.13.

Q: For AGCAGAGCGCAACACAGCGUGUCAAAGUGGCUGUGGCUAGACUGCC [G1A U9G G22U], which self-cleavage is on record?
A: Its self-cleavage is 0.15.

Q: With AGCAGAGCGCAACACAGCGUGGCAAAGUGGCUGUGGCUAGACUACC [G1A U9G G44A] as the variant, how does the self-cleavage read?
A: Its self-cleavage is 0.14.

Q: Which self-cleavage does the source give for AGCAGAGCGCAACACAGCGAGGCAAAGUGGCUUUCGCUAGAGUGCC [G1A U9G U20A G33U G35C C42G] here?
A: The self-cleavage was 0.03.

Q: With AGCAGAGCGCAACACAGCGUGGCAAAGUGGCUGCGGCUAGACUGCC [G1A U9G U34C] as the variant, how does the self-cleavage read?
A: Its self-cleavage is 0.02.

Q: Which self-cleavage does the source give for AGCAGAGCUCAACACAGCGAGGCAAUGUGGCUGUGGCUCAACUGCC [G1A U20A A26U A39C G40A] here?
A: The self-cleavage was 0.07.

Q: For AGCAGAGCUCAACACAGCGAGGCAAAGUCGCUGUGGCUAGACUACC [G1A U20A G29C G44A], which self-cleavage is on record?
A: The self-cleavage was 0.14.

Q: With AGCAGAGCUCAACACAGCGCGGGAAAGUGGCUGUGGCUAGACUGCC [G1A U20C C23G] as the variant, how does the self-cleavage read?
A: Its self-cleavage is 2.06.

Q: With AGCAGAGCUCAACACAGCGGGGCAAAGUGGCUGUGGGUAGACUGAC [G1A U20G C37G C45A] as the variant, how does the self-cleavage read?
A: The self-cleavage was 0.02.

Q: For AGCAGAGCUCAACACAGCGGUGCAAAGUGGCUGUGGCUAGACUGCC [G1A U20G G21U], which self-cleavage is on record?
A: Its self-cleavage is 0.45.

Q: With AGCAGAGCUCAACACAGCGUGGCAAAGAGGCUGCGGCUGGACUGCC [G1A U28A U34C A39G] as the variant, how does the self-cleavage read?
A: Its self-cleavage is 0.02.

Q: With AGCAGAGCUCAACACAGCGUGGCAAAGUGGCCGUGGCUAGUCUUCC [G1A U32C A41U G44U] as the variant, how does the self-cleavage read?
A: The self-cleavage was 0.01.

Q: With AGCAGAGCUCAACACAGCGUGGCAAAGUGGCCGUGGCUAGAACGCC [G1A U32C C42A U43C] as the variant, how does the self-cleavage read?
A: The self-cleavage was 0.07.

Q: For AGCAGAGCUCAACACAGCGUGGCAAAGUGGCUGAAGCAAGACUACC [G1A U34A G35A U38A G44A], which self-cleavage is on record?
A: The self-cleavage was 0.03.

Q: For AGCAGAGCUCAACACAGCGUGGCAAAGUGGCUGUGGCGCGACUCCC [G1A U38G A39C G44C], which self-cleavage is on record?
A: Its self-cleavage is 0.19.

Q: With CGCCGUGCUCAACACAGCGUGUUAAAGUGGCUGUGGCUAGACUGAC [G1C A4C A6U G22U C23U C45A] as the variant, how does the self-cleavage read?
A: Its self-cleavage is 0.02.

Q: For CGCCGAGAUCUACACAGCGUGGCAAAGUCGCUGUGGCUAGACUGCC [G1C A4C C8A A11U G29C], which self-cleavage is on record?
A: Its self-cleavage is 0.03.

Q: For CGCCGAGCUCAACACAGUUUGGCAAAGUUGCUGUAGGUAGACUGCC [G1C A4C C18U G19U G29U G35A C37G], which self-cleavage is on record?
A: Its self-cleavage is 0.02.

Q: With CGCCGAGCUCAACACAGCGUGACAAAGUGGCUGUGGCUAGACUGCC [G1C A4C G22A] as the variant, how does the self-cleavage read?
A: The self-cleavage was 0.03.

Q: For CGCCGAGCCCAACACAGCGUGGCAAAGUGCCUUUGGCUAGACUGCC [G1C A4C U9C G30C G33U], which self-cleavage is on record?
A: The self-cleavage was 0.01.

Q: Which self-cleavage does the source give for CGCCGAGCUCAACACAGCGUGGCAAAGUGGCGGUGGCUAGACUGCC [G1C A4C U32G] here?
A: Its self-cleavage is 0.05.

Q: With CGCGGAGCUCAACACAGCGUGGCAAAGUGGCUGUGGCUGGACUGCC [G1C A4G A39G] as the variant, how does the self-cleavage read?
A: Its self-cleavage is 0.02.

Q: For CGCGGAGCUCAACACAGCGUGGCAAAGUGGUUGUGGCUAGACUGCC [G1C A4G C31U], which self-cleavage is on record?
A: The self-cleavage was 0.02.
